Measurements reported in PubChem BioAssay AID504832 (National Center for Advancing Translational Sciences (NCATS), 2011).
The campaign covered roughly 310,000 compounds. About 18,000 (5.8%) were called active. The inconclusive results got no clear call from the source; some entries with a clear call stand among them for comparison. The call rests on the fitted dose curve; in most records, active means well fitted inhibition curve with a large enough effect; inconclusive means small, poorly fitted or top-dose-only effect, or another doubt; inactive means no such curve, though single readings can be large or run the other way. Potencies of inconclusive entries are left out as doubtful fits.

Assay: Primary qHTS for delayed death inhibitors of the malarial parasite plastid, 48 hour incubation
Conditions: P. falciparum luciferase growth in erythrocytes; series mostly up to 28.7 µM
Outline: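 Cell-based growth assay: transgenic P. falciparum expressing firefly luciferase, cultured in red cells within RPMI 1640 containing 0.5% w/v Albumax, 24 mM bicarbonate and gentamycin. A drop in luciferase activity indicates inhibition.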
On the % scale 0 is the no-effect control and ±100 the full control effect; potency means the concentration at half of the fitted maximal effect; tags describe the fitted curve by direction and shape.

SMILES	Potency	activity change, negative = inhibition
Cc1[nH]c2ccc(C(=O)OCC(=O)NC3(C#N)CCCCC3)cc2c1C	inconclusive [inhibitor, partial curve, poor fit]	–
COc1ccc(N=Cc2cc(Cc3ccccc3Cl)cc([N+](=O)[O-])c2O)cc1OC	inconclusive [inhibitor, full curve, poor fit]	–
CCCc1ccc(OCc2ccc(C(=O)NN)o2)c(OC)c1	–	inactive: -2.4% [at 0.00184 µM]
COC(=O)c1sccc1NC(=O)c1ccccc1	inconclusive [inhibitor, single point]	–
CN(Cc1ccccc1)c1nc2c(c(=O)[nH]c(=O)n2C)n1CCCSc1ncccn1	inconclusive [inhibitor, single point]	–
O=C(CSc1nnnn1-c1ccc2c(c1)OCCO2)OC1CCCCC1	inactive	–
O=C(CSc1ncnc2scc(-c3ccc(F)cc3)c12)c1ccc2c(c1)OCCO2	inactive	–
Cc1cccc(NC(=O)CSc2nnc(-c3ccc(S(=O)(=O)N4CCCC4)cc3)o2)c1	inconclusive [inhibitor, single point]	–
Cc1ccccc1-n1cc(CNC(=O)CC2C(=O)NCCN2C/C=C/c2ccccc2)cn1 (stereo not given)	inconclusive [inhibitor, single point]	–
O=[N+]([O-])c1ccc(N2CCN(C(=S)NCc3ccc(Cl)cc3)CC2)cc1	inconclusive [inhibitor, full curve, poor fit]	–
CN(C)C1=NC[C@H](Cc2ccccc2)N1CCCC1CCCC1	active: 9.28 µM	–
COc1cccc(C2CCCN2Cc2nc(-c3cnccn3)no2)c1 (stereo not given)	active: 13.1 µM	–
COc1ccccc1NC(=S)N(CCCN1CCOCC1)Cc1cn(C)c2ccccc12	inconclusive [inhibitor, single point]	–
CC1Cc2ccccc2N1C(=O)CN(C)CC(=O)Nc1ccc(F)cc1 (stereo not given)	inconclusive [inhibitor, single point]	–
COc1cc(/C=N/NC(=O)c2cccnc2)cc(Br)c1O	inactive	–
CS(=O)(=O)c1sc(C#N)c2c1C(=O)CC(c1ccccc1)C2 (stereo not given)	active: 11.7 µM	–
COc1ccc(C(=O)CCC(=O)Nc2ccc(N3CCCCC3)cc2)cc1OC	inconclusive [inhibitor, single point]	–
COc1cccc(N(C(=O)c2ccco2)C(C(=O)NC2CCCC2)c2cccnc2)c1 (stereo not given)	inconclusive [inhibitor, partial curve, poor fit]	–
O=C(NCc1ccco1)C1CCCN1C(=O)Nc1ccccc1[N+](=O)[O-] (stereo not given)	inactive	–
Cc1c(C(=O)N/N=C/c2ccc(N3CCOCC3)cc2)nc2ccccn12	inconclusive [inhibitor, partial curve, poor fit]	–
Nc1c(C(=O)c2ccccc2O)cnn1-c1ccc(S(=O)(=O)N2CCOCC2)cc1[N+](=O)[O-]	inactive	–
CN(C(=O)c1ccc(=O)n(Cc2ccc(Cl)cc2)c1)c1ccccc1	inactive	–
CCOc1ccc(NC(=O)C(=O)NCCN2CCN(S(=O)(=O)c3ccccc3)CC2)cc1	inactive	–
CC(=O)Nc1ccc(OCC(O)Cn2ccnc2)cc1 (stereo not given)	inactive	–

SMILES	Potency	activity change, negative = inhibition
CCC(=O)c1cc(F)c(N2CCN(C(=O)c3ccco3)CC2)cc1C	inconclusive [inhibitor, single point]	–
O=C(Nc1ccccc1N1CCN(C(=O)c2ccc(Cl)cc2)CC1)c1cc2ccccc2o1	inconclusive [inhibitor, partial curve]	–
CCc1ccc2[nH]c(=O)c(CN(CCN(C)C)C(=O)Nc3ccccc3)cc2c1	inconclusive [inhibitor, partial curve]	–
COc1ccc(NS(=O)(=O)c2cc(NC(=O)c3cnc(C)cn3)ccc2N2CCCC2)cc1	inconclusive [inhibitor, single point]	–
CCOC(=O)[C@H]1[C@H]2COc3ccc(OC)cc3[C@@H]2N2C(=O)CN(Cc3ccco3)C(=O)[C@@]12C	inconclusive [inhibitor, partial curve, poor fit]	–
CC12CCC(=O)N1C(C(=O)NCCN1C(=O)S/C(=C\c3ccc(OC(F)F)cc3)C1=O)CS2 (stereo not given)	inconclusive [inhibitor, single point]	–
Cc1c(C(=O)c2ccccc2C(=O)O)sc2ccccc12	inactive	–
Cc1ccc(-c2c[n+]3c(n2-c2ccccc2)CCC3)cc1	active: 1.47 µM	–
CCC(=NC1CC1)c1c(O)n(C2CCCCC2)c(=O)[nH]c1=O	inconclusive [inhibitor, single point]	–
CC1=Nn2c(nnc2C2CCCCC2)SC1	inconclusive [inhibitor, full curve, poor fit]	–
COc1cc2c(cc1OC)C1O[C@](CCCCN3C(=O)c4ccccc4C3=O)(C2)Oc2c1c(=O)oc1ccccc21	inconclusive [inhibitor, partial curve]	–
Cc1ccc(S(=O)(=O)N(CC(=O)NCCSC2CCCCC2)c2ccccc2F)cc1	active: 4.65 µM	–
CCOC(=O)C(CC)n1nc(C)n2c(cc3sccc32)c1=O (stereo not given)	inactive	–
COc1ccc2c(c1)c(=O)c(C(=O)c1ccccc1)cn2Cc1ccc(C)cc1	inconclusive [inhibitor, single point]	–
NNC(=O)c1ccc(COc2cccc3cccnc23)cc1	–	inactive: -50.8% [at 5.75 µM]
CC(Sc1nnc(-c2ccco2)n1-c1ccccc1)C(=O)NCC1CCCO1 (stereo not given)	inactive	–
CCOC(=O)c1c(NC(=O)COC(=O)c2nc(Cl)ccc2Cl)sc2c1CCC2	inactive	–
CC(C)(C)NC(=O)C(Cc1ccccc1)NS(=O)(=O)c1cccc2nsnc12 (stereo not given)	inconclusive [inhibitor, partial curve, poor fit]	–
CC(C)N1CCc2c(sc(N)c2C#N)C1	inconclusive [inhibitor, single point]	–
COC(=O)CCCC1=CC2=C(c3ccccc3)C(=O)C(C)(OC(=O)C3CCCC3)C(=O)C2=CN1CC(C)C (stereo not given)	inconclusive [inhibitor, partial curve, poor fit]	–
Cc1ccc(-n2c(C)nc3ccccc3c2=O)c(C)c1	inactive	–
Cc1ccc(-n2ncc(C(=O)Nc3cc(Cl)ccc3C)c2C2CCNCC2)cc1C	inconclusive [inhibitor, partial curve, poor fit]	–
O=C(Nc1ccncc1)c1c(F)c(F)c(F)c(F)c1F	active: 10.4 µM	–
O=C(N/N=C/c1cccc([N+](=O)[O-])c1)C1COc2ccccc2O1 (stereo not given)	inactive	–

SMILES	Potency	activity change, negative = inhibition
CN1c2ccccc2Oc2c(c(=O)n(C)c(=O)n2C)C1c1cccc([N+](=O)[O-])c1 (stereo not given)	inactive	–
Cc1ccc(N(C(=O)c2snc(C(N)=O)c2N)C(CC(C)C)C(=O)NC2CCCC2)cc1 (stereo not given)	inconclusive [inhibitor, partial curve, poor fit]	–
CCc1ccc(CNC(=O)Cc2ccc(NC(=O)C3=C(C)OCCS3)cc2)cc1	inactive	–
Cc1cccc(NC(=O)Nc2ccc3c(c2)CCC3)c1	inactive	–
COc1ccc(OCC(=O)Nc2ccc3c(c2)n(C)c(=O)n3C)cc1	inactive	–
CCOc1ccc2c(c1)s/c(=N\S(=O)(=O)c1ccc(OC)cc1)n2C(F)F	inconclusive [inhibitor, single point]	–
CCCCCCCOC(=O)C[N+](C)(C)CCOC1CC2CCC1(C)C2(C)C (stereo not given)	active: 1.85 µM	–
CCCCN(CCCC)c1nc(OC)nc(-n2nnc(C(C)=O)c2C)n1	inconclusive [inhibitor, partial curve, poor fit]	–
COc1ccccc1C(=O)NNC(=O)c1csc(N2CCOCC2)n1	inconclusive [inhibitor, single point]	–
COc1cccc(NC(=O)CSc2nc3c(sc4ccccc43)c(=O)n2CCN(C)C)c1	inconclusive [inhibitor, single point]	–
COc1ccccc1NC(=O)CN1CCC(n2c(C)nc3cc(F)ccc32)CC1	inconclusive [inhibitor, full curve]	–
CCCS(=O)(=O)N1CCCC(C(=O)NCCCN(C)c2ccccc2)C1 (stereo not given)	inconclusive [inhibitor, partial curve]	–
COc1ccc(-n2cc(CNCCc3cnc[nH]3)c(-c3cccc(F)c3)n2)cc1	active: 1.65 µM	–
COCCn1c(C)cc(C(=O)COC(=O)/C=C/c2c(C)nn(C3CCS(=O)(=O)C3)c2Cl)c1C (stereo not given)	inconclusive [inhibitor, single point]	–
CCOc1ccccc1C(=O)OCC(=O)Nc1cc(Cl)ccc1Oc1ccccc1	inactive	–
CC(C)C(=O)Nc1nc2c(c(=O)[nH]1)CCCC2	inconclusive [inhibitor, single point]	–
O=C(NC1CC2CCCC(C1)N2S(=O)(=O)c1ccccc1)c1ccccc1 (stereo not given)	inconclusive [inhibitor, partial curve]	–
COc1ccccc1N1CCN(C(c2cc3ccc(C)cc3[nH]c2=O)c2nnnn2C2CCCC2)CC1 (stereo not given)	active: 1.85 µM	–
CCOC(=O)CCNC(=O)N1CCC(CCC(=O)NCc2ccc(F)cc2)CC1	inconclusive [inhibitor, partial curve, poor fit]	–
CC(C)Oc1cccc(C(=O)C2CCCN(C(=O)c3ccnn3C)C2)c1 (stereo not given)	inactive	–
NC(=O)c1ccsc1NC(=O)COC(=O)c1nc(Cl)ccc1Cl	inactive	–
COc1cccc(Cn2c(NCC(C)C)nc3c2c(=O)n(C)c(=O)n3C)c1	inconclusive [inhibitor, partial curve]	–
